Assay results from PubChem BioAssay AID1347073 (National Center for Advancing Translational Sciences (NCATS), 2019).
In all, about 45,000 compounds went through this assay and about 200 (0.44%) were called active. Inconclusive results (about 7%) are left out. Calls come from the whole dose curve; as a rule, active = well fitted activation curve with a large enough effect; inconclusive = small, poorly fitted or top-dose-only effect; inactive = no such curve, though single readings can be large or run the other way. Some of the results follow.

Assay: qHTS of TDP-43 Inhibitors: NCGC Sytravon Library Screen; note: 0% is about no effect; nearly all actives have a fitted effect of over 55% in size
Settings: yeast TDP-43 toxicity rescue, BacTiter-Glo growth, 24 h; series mostly up to 46.1 µM; growth rescue (activation): at the top concentration
In short: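 TDP-43-expressing yeast, pregrown in raffinose, seeded at OD600 0.02 in galactose medium with compound for 24 hr at 30 deg C. Growth read by BacTiter-Glo luminescence, so rescue of toxicity appears as activation.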

Structure (SMILES)	growth rescue (activation)
CC1(C)CC(=O)C2=C(C1)NC(=O)NC2c1ccc([N+](=O)[O-])cc1 (centres undefined)	inactive: 9.67%
CC(C)COP(=O)(c1ccc(N(C)C)cc1)C(O)c1ccccc1 (centres undefined)	inactive: 7.55%
CC1CCCN(S(=O)(=O)c2ccc(NC(=O)C3CCN(C(=O)c4ccco4)CC3)cc2)C1 (centres undefined)	inactive: 15.6%
CC(=O)Nc1ccccc1/C=C/c1ccc2c(C)cc(C)c(O)c2n1	inactive: -13.8%
CCN(c1ccccc1)S(=O)(=O)c1csc(C(N)=O)c1	inactive: 6.43%
Cc1cccc(C(C#N)c2ccc(Cl)nn2)c1 (centres undefined)	inactive: -0.711%
Cc1ccc(S(=O)(=O)N2CCN(CCOc3ccccc3)CC2)cc1	inactive: 7.67%
O=C(Cc1cccs1)Nc1ccc(S(=O)(=O)N2CCCC2)cc1	inactive: 7.98%
C/C(CCc1ccco1)=N/NC(=O)CCC(=O)Nc1ccc(Br)cc1	inactive: 12.2%
NC(c1csc(NC(=O)Nc2cccc(C(F)(F)F)c2)n1)C1CCCCC1 (centres undefined)	inactive: 7.88%
COc1ccc(N2C(=O)C3ON(C4SC(=S)N(C)C4(C)C)C(c4ccc(Cl)cc4)C3C2=O)cc1 (centres undefined)	inactive: 20.9%
CCCC1(C(=O)OC)NC(c2ccc(OC)c(OC)c2)C2C(=O)N(c3cccc(C(C)=O)c3)C(=O)C21 (centres undefined)	inactive: -15.3%
N#C/C(=C(/O)COC(=O)c1ccc(Cl)c(S(=O)(=O)N2CCOCC2)c1)c1nc2ccccc2[nH]1	inactive: 6.42%
O=C(CN1C(=O)NC2(CCCCC2)C1=O)NCCc1ccc(Cl)cc1Cl	inactive: -9.88%
Cc1cccc(NC(=S)N2CCC(O)CC2)c1C	inactive: 11.9%
Cc1cc(C(=O)C(=O)O)c(C)n1-c1ccc(Cl)cc1	inactive: -8.4%
CCOC(=O)NN1C(=O)c2ccccc2NC1c1ccc(OC)c(OC)c1 (centres undefined)	inactive: 10.3%
O=c1c2ccccc2c(/C=N/c2ncn[nH]2)c(O)n1Cc1ccccc1	inactive: 9.31%
CN(CC(=O)NCCc1ccc(Cl)cc1)S(=O)(=O)c1cccs1	inactive: 20.3%
CC(=O)c1c(C)nc(-c2ccccc2)nc1NC(=O)C(C)C	inactive: 6.03%
CCOC(=O)c1c(-c2ccc(OC)cc2)csc1/N=C/C1C(=O)CCCC1=O	inactive: 20%
Cc1c(O)ccc2c(CN(C)Cc3ccccc3)cc(=O)oc12	inactive: -6.49%
Cc1cccc(NCc2ccc(O)c3ncccc23)c1C	inactive: -21.3%
CS(=O)(=O)N1CCc2cc(S(=O)(=O)N3CCCCC3)ccc21	inactive: 3%
CC(=O)Nc1ccc(N(C(=O)CNC(=O)c2ccco2)C(C(=O)NCC2CCCO2)c2ccccc2)cc1 (centres undefined)	inactive: -5.08%
CNC(=O)CSc1nnc(SCCC(=O)O)s1	inactive: 2.62%
O=C1OC(/C=C/c2ccccc2)=NC/1=C\c1cccnc1	inactive: -16.6%
Cc1ccc(OCCNc2cc(N3CCN(CCO)CC3)ccc2[N+](=O)[O-])cc1C	inactive: 12.9%
COc1cccc(C(C)(O)c2nc(-c3cncnc3)cs2)c1 (centres undefined)	inactive: 16.9%
